The text below walks through data of PMC10668032.

This is one part of the list. At the low end of the ranking, values are background and their order means little.

The target in this assay is SIX1-Q177R homeodomain (UniProt Q15475). Description: universal protein binding microarray. The note with it: Universal all-10-mer PBM (8x60K, AMADID 030236), 300 nM GST-tagged protein, Alexa Fluor 488 anti-GST; buffer, salt, pH and temperature not stated; high values mean tight binding; most listed sequences are background and not binding sites; double strand, one strand shown.
Take CGCCTATA: the binding signal was 0.00545 E-score.

AATGGATC: the binding signal is -0.0158 E-score. For the sequence AATGGTGC, the binding signal was determined as 0.126 E-score. Take ACGCGAAG: the binding signal is -0.0656 E-score. Next, ATCAACTC: -0.00642 E-score; CTTCAAAC: -0.115 E-score; GTCCTTTA: -0.0967 E-score. As for TGGTCCAA, the figure is -0.0811 E-score. With CTGGATCA, the binding signal came to 0.1 E-score. In the case of ATTAATAC, the binding signal amounted to 0.0822 E-score. With AAGCGCTG, the binding signal is -0.216 E-score. As for AGCAGGTC, the figure is -0.293 E-score. Turning to ACGACTGA, the binding signal was -0.121 E-score.

For the sequence CACGGCCC, the binding signal was 0.215 E-score. As to GCGCCCCC, the binding signal was -0.0635 E-score. Turning to GAGAATAC, the binding signal was determined as 0.194 E-score. For the sequence CAAGACTG, the binding signal is -0.108 E-score.

Regarding GATCGTGC, the binding signal was found to be 0.012 E-score. Consider GACTCAGC, for which the binding signal was -0.179 E-score. On to GTCCGAAA, for which the binding signal is -0.218 E-score. Next, CGCTTTGA: -0.0323 E-score; ATTCATTC: -0.0622 E-score; TATTACGA: -0.226 E-score.

Regarding AGGAGTAA, the binding signal was determined as 0.135 E-score. As to TACTGGCA, the binding signal is -0.108 E-score. GATGTCCC: the binding signal was -0.219 E-score. With CTCCGCAA, the binding signal was -0.0125 E-score.

Regarding CCTGCCCA, the binding signal turned out to be 0.0631 E-score. For the sequence AGATGATC, the binding signal is -0.0253 E-score. Consider ACAGCCGA, for which the binding signal stood at 0.02 E-score.

Regarding GGCGGTAC, the binding signal was 0.0715 E-score. Next, GGAGTGTA: 0.417 E-score; CCCATGGA: 0.189 E-score; CGCTTGCA: 0.024 E-score.

For CATTCACG, the binding signal was -0.153 E-score.

As to AATAAGCA, the binding signal is 0.136 E-score. Regarding GTCTGGTA, the binding signal is 0.0736 E-score. Take ATGATAAC: the binding signal is -0.136 E-score. Turning to CACGCCGG, the binding signal came out at 0.287 E-score. As for AAGGAAAG, the binding signal was -0.361 E-score.

With AGCCAATC, the binding signal was -0.125 E-score.

With CGAACGAA, the binding signal was -0.143 E-score. Turning to ATTTTTTG, the binding signal is -0.176 E-score.

Consider CACGTAGC, for which the binding signal was found to be 0.0183 E-score. Regarding AGCACCGC, the binding signal was found to be 0.288 E-score. Regarding CTCGGGAA, the binding signal is -0.0137 E-score. Turning to AACAGCCT, the binding signal is -0.249 E-score. Turning to CATAGCTC, the binding signal is -0.131 E-score. As for CGACGCCA, the figure is 0.0788 E-score. As to ATTGCGAC, the binding signal is -0.00343 E-score. Next, AAGTACCC: 0.205 E-score; CCTACCCC: 0.227 E-score. ATGAATAC: the binding signal is -0.0199 E-score. Consider CTACCCAC, for which the binding signal was determined as 0.111 E-score. As for GTACCAAA, the figure is -0.0604 E-score.

For the sequence GACGCGGA, the binding signal worked out at 0.00938 E-score. In the case of CCACAAGC, the binding signal was -0.153 E-score. Next, GCGACTCA: -0.0999 E-score; TTATATAA: -0.181 E-score. Next, CTCACGAC: -0.213 E-score.

Consider CAGACCCA, for which the binding signal is -0.089 E-score. For AGTCAGGC, the binding signal was -0.174 E-score. Turning to AGAATATG, the binding signal was -0.0948 E-score. In the case of CTGCGCAG, the binding signal was -0.241 E-score. As to GATACACA, the binding signal is 0.191 E-score. Regarding AAGCGCGT, the binding signal is -0.228 E-score. With AGTTGGTG, the binding signal turned out to be 0.288 E-score.

Consider ATATACGG, for which the binding signal stood at 0.0681 E-score. Regarding ATCTCACA, the binding signal is 0.119 E-score. As for CCCCCATA, the figure is 0.192 E-score; as for GACTCCAC, 0.211 E-score. Next, ATTAAGTG: 0.131 E-score. Next, TGCGTCAA: -0.161 E-score; GATCCTAC: 0.104 E-score. Turning to ATAGATAA, the binding signal is -0.159 E-score. Consider AGGTTTGG, for which the binding signal is -0.134 E-score. Consider ACAGGTTC, for which the binding signal is -0.0948 E-score. On to CGTTCGCC, for which the binding signal was -0.0626 E-score. Turning to CGACAGGC, the binding signal is -0.214 E-score. Next, CCCCACCG: 0.228 E-score. On to ATTGCAGA, for which the binding signal is -0.0125 E-score. As for GATACCCC, the figure is 0.419 E-score; as for ATCTAGGC, -0.118 E-score. Next, GTAATTAC: 0.0374 E-score. On to ATGCGGGC, for which the binding signal is -0.118 E-score. In the case of AAGTCGGA, the binding signal is -0.0895 E-score. Turning to ACTCGCTA, the binding signal worked out at 0.115 E-score. Take AAGAGTAG: the binding signal is -0.0152 E-score. As for GCGCCACC, the figure is -0.126 E-score. Next, CTTCATCA: -0.182 E-score; GAATGAGC: -0.0151 E-score.

CTCGCGAG: the binding signal was -0.0818 E-score. On to CGATATCA, for which the binding signal was -0.166 E-score. Next, AGCGGCCG: -0.308 E-score. Turning to GCGTCTTA, the binding signal is -0.0916 E-score. For the sequence TAAATTCA, the binding signal is -0.277 E-score.

As for GATGATGA, the binding signal was -0.164 E-score. In the case of GACGTCCA, the binding signal is -0.273 E-score.

With AATTGGCA, the binding signal is -0.128 E-score. Next, GCGTCCGA: 0.09 E-score; CCTTTTAA: -0.148 E-score.

For AAGTCTGG, the binding signal was -0.0965 E-score. For the sequence AGGTCGTC, the binding signal is -0.111 E-score. On to CTTCTCAA, for which the binding signal was -0.219 E-score. As for GAAAGCAA, the figure is -0.149 E-score; as for GCGCTCTA, -0.186 E-score; as for CATGCATA, -0.158 E-score.

Turning to CCATCCCG, the binding signal amounted to 0.119 E-score. As for CATGCAAG, the binding signal is -0.0539 E-score. Next, AGACGCAA: -0.177 E-score. Turning to TGTACTAA, the binding signal amounted to 0.0427 E-score. AAGCACAT: the binding signal is -0.258 E-score.

Regarding CGGTCAAG, the binding signal was determined as 0.0346 E-score. Turning to ATTCAGTG, the binding signal stood at 0.0364 E-score.

CCTGCTGC: the binding signal is -0.211 E-score. In the case of ACTGACTC, the binding signal is 0.0799 E-score. Turning to ATGTCTTG, the binding signal was -0.24 E-score. In the case of AAATAGAG, the binding signal is -0.201 E-score. Next, AAACCGGA: -0.163 E-score.

As to CCCCATTC, the binding signal is -0.0246 E-score. As for CGCGAAAC, the binding signal turned out to be 0.0125 E-score. Turning to TAGCGCAA, the binding signal was -0.168 E-score. As for GAGATGCA, the binding signal is -0.113 E-score. As for CAGATCCA, the binding signal is -0.0662 E-score. CCTATCAG: the binding signal came out at 0.0323 E-score. As for CGCTACTC, the binding signal turned out to be 0.11 E-score.

For ATCATAAG, the binding signal stood at 0.185 E-score.

AGAAGTGG: the binding signal was -0.0891 E-score. Consider CTCGTTGC, for which the binding signal turned out to be 0.0145 E-score. As to ACAGTCAT, the binding signal is -0.118 E-score. With CCCCGCGG, the binding signal came to 0.193 E-score. As for AATCAGCT, the figure is -0.0853 E-score; as for ACTATCCT, -0.035 E-score.

Consider GGATAACC, for which the binding signal worked out at 0.0698 E-score. For the sequence ATCCTTCA, the binding signal came to 0.0422 E-score. As for ACCTTAGG, the binding signal was 0.0181 E-score.

For the sequence ATCCGGAG, the binding signal was found to be 0.216 E-score.

For ACCGGATA, the binding signal amounted to 0.185 E-score. As for CAGAGTCC, the binding signal turned out to be 0.0042 E-score. With TAGAGTGA, the binding signal turned out to be 0.0564 E-score. CATACGTC: the binding signal was -0.238 E-score. For AAGACAAC, the binding signal was -0.0692 E-score.

For the sequence AGGCCGCG, the binding signal was -0.335 E-score. Next, CATGAACA: 0.0466 E-score. Regarding AGATCACC, the binding signal was -0.139 E-score. For the sequence AAACGTCA, the binding signal is -0.309 E-score. On to AGGGGTCC, for which the binding signal turned out to be 0.178 E-score. As for TGGTCAAA, the binding signal is -0.238 E-score. As for GGGTCGCA, the figure is 0.0215 E-score; as for GGTCGCGA, -0.0426 E-score; as for ATGGAAAA, 0.0701 E-score.

For the sequence CGCTTCCA, the binding signal is -0.145 E-score.

On to ACTCATCA, for which the binding signal is -0.29 E-score.

For the sequence AAGCCCAT, the binding signal is -0.154 E-score. With GTCGATGA, the binding signal is -0.0796 E-score.

Consider CACACACA, for which the binding signal came out at 0.184 E-score. With TCCAGGCA, the binding signal is -0.0314 E-score.

As for ATAGAAGG, the binding signal was 0.0135 E-score. On to CGCGACAA, for which the binding signal was -0.12 E-score. GAAACCAA: the binding signal was -0.062 E-score. Next, GAAGGGCC: -0.225 E-score. With AACTAGTG, the binding signal was determined as 0.135 E-score. Next, GCCCGAGA: -0.0128 E-score; ACCAGTCA: 0.0218 E-score. Consider TACGGATA, for which the binding signal is 0.119 E-score. Take AATGTTGT: the binding signal was -0.234 E-score. On to CTTACCAC, for which the binding signal was -0.0117 E-score.

In the case of ATACGTCC, the binding signal was determined as 0.0352 E-score.

With AACAATTC, the binding signal is -0.238 E-score. Consider ACATCGGG, for which the binding signal is -0.0903 E-score. Consider CATGGGAC, for which the binding signal was -0.0521 E-score. As for CCCTCGCA, the figure is 0.0759 E-score.
